From PubChem BioAssay AID588591 (National Center for Advancing Translational Sciences (NCATS), 2011)
Values joined by “and” are separate entries in the source; they are usually repeats but may differ in a detail not shown here. Identical values can stand only once. Screen size: about 390,000 compounds; about 4,700 (1.2%) were called active. The shares of active, inactive and inconclusive entries below differ from those in the screen. Calls come from the whole dose curve; as a rule, active = well fitted inhibition curve with a large enough effect; inconclusive = small, poorly fitted or top-dose-only effect, or another doubt; inactive = no such curve, though single readings can be large or run the other way. Where the call is inconclusive, the potency comes from a doubtful curve fit.

These molecules were tested against DNA polymerase eta (Homo sapiens) (UniProt Q9Y253) (assay: qHTS for Inhibitors of Polymerase Eta). Details: recombinant Pol eta, fluorescent DNA replication assay; series mostly up to 114 µM; activity change, negative = inhibition: at the top concentration.
How it was run: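 Pol eta (10 nM) was preincubated with compounds for 15 min at room temperature, after which fluorescent replication substrate (50 nM final) was added to start the reaction. Fluorescence was read kinetically at 0 and 10 min.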
% is set by controls: 0 for no effect and ±100 for the full control effect; potency is the fitted concentration of half-maximal effect; tags give direction and shape of the fitted curve.

UniProt Q9Y253, sequence (Q9Y253 whole entry, looked up): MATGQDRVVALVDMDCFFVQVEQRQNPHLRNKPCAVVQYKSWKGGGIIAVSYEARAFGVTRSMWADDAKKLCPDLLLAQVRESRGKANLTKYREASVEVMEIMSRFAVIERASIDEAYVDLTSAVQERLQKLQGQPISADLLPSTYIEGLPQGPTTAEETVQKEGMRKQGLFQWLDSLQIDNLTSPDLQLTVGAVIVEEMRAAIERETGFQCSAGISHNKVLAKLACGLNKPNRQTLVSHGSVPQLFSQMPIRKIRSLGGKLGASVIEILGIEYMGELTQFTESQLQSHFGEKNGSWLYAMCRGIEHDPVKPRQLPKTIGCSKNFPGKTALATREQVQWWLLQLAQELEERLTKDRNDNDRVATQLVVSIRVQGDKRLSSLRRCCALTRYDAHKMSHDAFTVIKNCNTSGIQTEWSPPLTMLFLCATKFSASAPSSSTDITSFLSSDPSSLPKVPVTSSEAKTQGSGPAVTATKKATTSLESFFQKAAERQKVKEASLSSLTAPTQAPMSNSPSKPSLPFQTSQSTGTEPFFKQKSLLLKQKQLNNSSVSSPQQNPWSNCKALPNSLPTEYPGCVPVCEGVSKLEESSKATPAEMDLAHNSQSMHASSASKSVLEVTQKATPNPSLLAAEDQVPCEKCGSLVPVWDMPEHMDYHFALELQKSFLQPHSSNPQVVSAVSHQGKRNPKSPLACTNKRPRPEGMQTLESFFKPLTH

Row | Compound | Potency | activity change, negative = inhibition
1 | COc1cc(NC(=O)CN2CCC(Cc3ccccc3)CC2)c(C)cc1[N+](=O)[O-] | inconclusive: 22.4 µM [inhibitor, partial curve] | –
2 | COc1ccc(NC(=O)c2ccc3c(=O)n4nc(Nc5ccccc5C)sc4nc3c2)cc1 | inconclusive: 44.7 µM [inhibitor, partial curve, poor fit] | –
3 | O=C(CSc1nnc(SCc2ccccc2)s1)N/N=C/C=C\c1ccco1 | active: 20 µM | –
4 | Cn1cc(Br)c(C(=O)Nc2sc3c(c2C(N)=O)CCC3)n1 | inconclusive: 15.8 µM [inhibitor, full curve, poor fit] | –
5 | COc1cccc(NS(=O)(=O)c2ccc3[nH]cc(C(=O)N(C)Cc4ccco4)c(=O)c3c2)c1 | inconclusive: 89.1 µM [inhibitor, single point] and inconclusive: 100 µM [inhibitor, single point] | –
6 | O=C(COC(=O)C1CCCCC1C(=O)N1CCc2ccccc21)NCc1ccco1 (configuration not stated) | active: 25.1 µM | –
7 | CCc1ccccc1N1CC(c2nc3ccccc3n2CCC2CCCCC2)CC1=O (configuration not stated) | – | inactive: -17.9%
8 | COc1ccc(Cn2c(C3CCCCC3)nc3c(c(=O)c4ccccc4n3C)c2=O)cc1 | inconclusive: 25.1 µM [inhibitor, partial curve] | –
9 | O=C(Nc1ccc(O)c(-c2nc3ccccc3s2)c1)c1cc(=O)c2ccccc2o1 | inconclusive: 3.55 µM [inhibitor, partial curve, poor fit] | –
10 | COc1cccc(NC(=O)CSc2nnc(NC(=O)NC3CCCCC3)s2)c1 | – | inactive: -11.3%
11 | O=C(COC(=O)Cc1ccc(-c2ccccc2)cc1)NCc1ccc(F)cc1 | – | inactive: -7.44%
12 | Cc1cccc(N2CCN(C(=O)c3c4c(nc5ccccc35)C(=O)N(C3CCCCC3)C4)CC2)c1C | – | inactive: -23.5%
13 | O=C(OCc1ccco1)c1cccnc1 | inconclusive: 20 µM [inhibitor, partial curve, poor fit] | –
14 | Cc1ccc(/C=C2/SC(=S)N(c3ccc(S(=O)(=O)Nc4nccs4)cc3)C2=O)cc1 | active: 39.8 µM | –
15 | O=C(COC(=O)C12CC3CC(CC(Br)(C3)C1)C2)Nc1ccc2[nH]c(=O)[nH]c2c1 | inconclusive: 39.8 µM [inhibitor, partial curve, poor fit] | –
16 | CN(C)CCn1nnnc1SCC1=C(C(=O)O)N2C(=O)[C@@H](NC(=O)Cc3csc(N)n3)[C@H]2SC1 | inconclusive: 89.1 µM [inhibitor, single point] | –
17 | O=C(Nc1cccc2nsnc12)c1cc2c(cc1Cl)Sc1nccn1S2(=O)=O | inconclusive: 31.6 µM [inhibitor, partial curve, poor fit] | –
18 | COC(=O)c1sc(-c2ccccc2)cc1NC(=O)C1CC1 | inconclusive: 89.1 µM [inhibitor, partial curve, poor fit] | –
19 | CC(NC(=O)Cc1ccc(NC(=O)N2CCCCc3ccccc32)cc1)c1ccccc1 (configuration not stated) | inconclusive: 89.1 µM [inhibitor, partial curve, poor fit] | –
20 | CC(=O)NC1C(c2nc3ccccc3s2)=C(c2ccccc2)C(=O)N1c1ccc(C)cc1 (configuration not stated) | – | inactive: 1.44%
21 | O=c1cc(-c2ccccc2)oc2cc(O)c(O)c(O)c12 | active: 3.16 µM | –
22 | Cc1c(Cl)cccc1NC(=O)C(=O)NCCc1csc(-c2cccc(F)c2)n1 | – | inactive: -9.42%
23 | Cc1cc(-c2cccs2)c2c(N)c(C(=O)c3ccc4c(c3)OCO4)sc2n1 | inconclusive: 0.355 µM [inhibitor, partial curve, poor fit] | –

Row | Compound | Potency | activity change, negative = inhibition
24 | COc1cccc(-c2csc(N3CCN(CC(=O)NNC(=O)c4ccco4)CC3)n2)c1 | inconclusive: 79.4 µM [inhibitor, partial curve, poor fit] | –
25 | Cc1onc(-c2c(Cl)cccc2Cl)c1C(=O)N=C(N)N1CCOCC1 | – | inactive: -18.8%
26 | O=c1cc(-c2ccc(O)c(O)c2)oc2c1ccc1ccccc12 | active: 3.16 µM | –
27 | O=C1CCCN2N=C(SCC(=O)Nc3nccs3)SC2=N1 | active: 79.4 µM | –
28 | COc1ccc2ccccc2c1/C=N/N1C(=O)CSC1=S | – | inactive: -13.4%
29 | Cc1ccc(-c2ccc(/C=C3/NC(=O)NC3=O)o2)cc1[N+](=O)[O-] | inconclusive: 39.8 µM [inhibitor, partial curve] | –
30 | CSc1ccccc1NC(=O)COc1ccc(Cl)cc1Cl | – | inactive: -28.4%
31 | Cc1ccc(S(=O)(=O)N2CCCc3cc(NC(=O)c4ccc(C(F)(F)F)cc4)ccc32)cc1 | inconclusive: 56.2 µM [inhibitor, partial curve, poor fit] | –
32 | Cc1c(C(=O)N2CCCCC2)oc2ccc(Br)cc12 | inconclusive: 39.8 µM [inhibitor, partial curve] | –
33 | Cc1c(Cl)cnc(NC(=O)COC(=O)CNC(=O)c2ccccc2)c1Cl | active: 50.1 µM | –
34 | CC(C)OC(=O)C(C(=O)C(F)(F)F)c1cc(NS(=O)(=O)c2ccc3ccccc3c2)c2ccccc2c1O (configuration not stated) | inconclusive: 17.8 µM [inhibitor, full curve, poor fit] | –
35 | CCNc1nc(NCC)n2c(SCC(=O)Nc3ccc(NC(C)=O)cc3)nnc2n1 | active: 39.8 µM | –
36 | Cc1cccc(N(C(=O)Cc2cccs2)C(C(=O)NCc2ccco2)c2ccncc2)c1 (configuration not stated) | inconclusive: 1.12 µM [inhibitor, partial curve, poor fit] | –
37 | CC(C)=CC(=O)OCC(=O)Nc1ncc(Cl)c(C)c1Cl | active: 79.4 µM | –
38 | O=C(Nc1ccc2c(c1)OCCO2)c1coc2ccccc2c1=O | inconclusive: 28.2 µM [inhibitor, single point] | –
39 | O=C(/C=C/c1ccco1)N(Cc1cccc(Cl)c1)C1CCS(=O)(=O)C1 (configuration not stated) | inconclusive: 39.8 µM [inhibitor, partial curve] | –
40 | Cc1c(Cl)cccc1-n1ncc(C(=O)N2CCc3ccccc3C2)c1C1CCN(C(=O)OC(C)(C)C)CC1 | – | inactive: -18.4%
41 | COc1cc(C2NC(=O)NC(c3ccccc3)=C2C(C)=O)c(Cl)cc1OCC(=O)O (configuration not stated) | inconclusive: 1.78 µM [inhibitor, full curve, poor fit] | –
42 | CCN(CC)c1ccc(-c2nn3c(-c4n[nH]c5c4CCC5)nnc3s2)cc1 | inconclusive: 10 µM [inhibitor, partial curve] | –
43 | Cc1cccc2cc(C#N)c(SCC(=O)NCC3CCCO3)nc12 (configuration not stated) | inconclusive: 0.631 µM [inhibitor, full curve, poor fit] | –
44 | CC(=O)Nc1nc(-c2ccccc2)cc(-c2ccco2)c1C#N | – | inactive: -4.45%
45 | O=C(NCc1ccc(F)cc1)C(=O)Nc1nc(C23CC4CC(CC(C4)C2)C3)cs1 | inconclusive: 100 µM [inhibitor, partial curve, poor fit] | –
46 | Nc1c(-c2ccccc2)sc2ccc3ccccc3[n+]12 | inconclusive: 100 µM [inhibitor, single point] | –

Row | Compound | Potency | activity change, negative = inhibition
47 | COc1ccccc1Nc1cc2cc(Br)ccc2c(=O)[nH]1 | active: 20 µM | –
48 | OCCN1CCN(c2nc(-c3ccccc3)c3cc(Cl)ccc3n2)CC1 | inconclusive: 89.1 µM [inhibitor, partial curve, poor fit] | –
49 | COc1ccc(/C=N/NC(=O)c2ccccc2OC)cc1COc1ccccc1[N+](=O)[O-] | – | inactive: -14.6%
50 | O=C(CCNC(=O)c1ccc(Br)cc1)Nc1cccc(S(=O)(=O)N2CCCCCC2)c1 | inconclusive: 3.55 µM [inhibitor, partial curve, poor fit] | –
51 | Cc1nc(Nc2cccc(O)c2)c2c3c(sc2n1)CCC3 | inconclusive: 5.62 µM [inhibitor, full curve, poor fit] | –
52 | O=C(Nc1ccc(Br)cn1)c1coc(=O)c(Br)c1 | active: 44.7 µM | –
53 | O=C(O)c1cccc(NN=C2c3ccccc3-c3ccccc32)c1 | inconclusive: 56.2 µM [inhibitor, partial curve] | –
54 | O=C(c1cc([N+](=O)[O-])ccc1Cl)N1CCN(c2ccccc2)CC1 | – | inactive: -7.09%
55 | Cc1cc2oc(=O)c(CC(=O)NCCc3ccccc3)c(C)c2c2occ(C(C)(C)C)c12 | – | inactive: -12.7%
56 | C=CCn1c(SCc2nc3cc(C(F)(F)F)ccc3c(=O)[nH]2)nc2sc(CC)cc2c1=O | inconclusive: 7.94 µM [inhibitor, full curve, poor fit] | –
57 | Cc1cc(=O)[nH]c(/N=C(\N)Nc2cccc3ccccc23)n1 | inconclusive: 20 µM [inhibitor, full curve, poor fit] | –
58 | N#Cc1nc(COc2ccccc2Cl)oc1N1CCCC1 | – | inactive: -24%
59 | COc1ccc(OC)c(NC(=O)CCNS(=O)(=O)c2ccc3[nH]c(=O)oc3c2)c1 | inconclusive: 50.1 µM [inhibitor, partial curve] | –
60 | O=C(N/N=C/c1ccccc1C(=O)O)c1ccc(COc2cccc3cccnc23)cc1 | active: 39.8 µM | –
61 | CC1=CSC2=NC(=O)/C(=C\c3cccn3-c3ccccc3)C(=N)N12 | – | inactive: -11.9%
62 | CCN1CCc2nc3sc(C(=O)Nc4cccnc4Cl)c(N)c3cc2C1 | inconclusive: 20 µM [inhibitor, full curve] | –
63 | Cc1ccc(C(=O)OC/C(O)=C(\C#N)c2nc3ccccc3[nH]2)cc1S(=O)(=O)N1CCOCC1 | inconclusive: 11.2 µM [inhibitor, partial curve, poor fit] | –
64 | COC(=O)c1ccc(NC(=O)c2ccc(NC(=O)c3ccco3)cc2)cc1 | inconclusive: 28.2 µM [inhibitor, partial curve, poor fit] | –
65 | CCOc1ccccc1Nc1nc2ccccc2n2cnnc12 | – | inactive: -18.1%
66 | COc1cc(/C=C2\SC(=O)N(CC(=O)Nc3ccccc3F)C2=O)cc(Cl)c1O | active: 50.1 µM | –
67 | Cc1nc(Cc2nnc(SCC(=O)N3CC(=O)Nc4ccccc43)o2)cs1 | inconclusive: 50.1 µM [inhibitor, partial curve, poor fit] | –
